Assay results taken from PubChem BioAssay AID504339 (National Center for Advancing Translational Sciences (NCATS), 2011).
Among all 390,000 compounds or so, about 17,000 (4.4%) were called active. This list was built around the results that the source calls inconclusive (neither active nor inactive); the mix of calls is not that of the screen. The call rests on the fitted dose curve; in most records, active means well fitted inhibition curve with a large enough effect; inconclusive means small, poorly fitted or top-dose-only effect; inactive means no such curve, though single readings can be large or run the other way. Potencies of inconclusive entries are doubtful fits and often do not repeat.

Target: Lysine-specific demethylase 4A (Homo sapiens) (UniProt O75164)
UniProt O75164, sequence (O75164 whole entry, looked up, the tested form may be a part): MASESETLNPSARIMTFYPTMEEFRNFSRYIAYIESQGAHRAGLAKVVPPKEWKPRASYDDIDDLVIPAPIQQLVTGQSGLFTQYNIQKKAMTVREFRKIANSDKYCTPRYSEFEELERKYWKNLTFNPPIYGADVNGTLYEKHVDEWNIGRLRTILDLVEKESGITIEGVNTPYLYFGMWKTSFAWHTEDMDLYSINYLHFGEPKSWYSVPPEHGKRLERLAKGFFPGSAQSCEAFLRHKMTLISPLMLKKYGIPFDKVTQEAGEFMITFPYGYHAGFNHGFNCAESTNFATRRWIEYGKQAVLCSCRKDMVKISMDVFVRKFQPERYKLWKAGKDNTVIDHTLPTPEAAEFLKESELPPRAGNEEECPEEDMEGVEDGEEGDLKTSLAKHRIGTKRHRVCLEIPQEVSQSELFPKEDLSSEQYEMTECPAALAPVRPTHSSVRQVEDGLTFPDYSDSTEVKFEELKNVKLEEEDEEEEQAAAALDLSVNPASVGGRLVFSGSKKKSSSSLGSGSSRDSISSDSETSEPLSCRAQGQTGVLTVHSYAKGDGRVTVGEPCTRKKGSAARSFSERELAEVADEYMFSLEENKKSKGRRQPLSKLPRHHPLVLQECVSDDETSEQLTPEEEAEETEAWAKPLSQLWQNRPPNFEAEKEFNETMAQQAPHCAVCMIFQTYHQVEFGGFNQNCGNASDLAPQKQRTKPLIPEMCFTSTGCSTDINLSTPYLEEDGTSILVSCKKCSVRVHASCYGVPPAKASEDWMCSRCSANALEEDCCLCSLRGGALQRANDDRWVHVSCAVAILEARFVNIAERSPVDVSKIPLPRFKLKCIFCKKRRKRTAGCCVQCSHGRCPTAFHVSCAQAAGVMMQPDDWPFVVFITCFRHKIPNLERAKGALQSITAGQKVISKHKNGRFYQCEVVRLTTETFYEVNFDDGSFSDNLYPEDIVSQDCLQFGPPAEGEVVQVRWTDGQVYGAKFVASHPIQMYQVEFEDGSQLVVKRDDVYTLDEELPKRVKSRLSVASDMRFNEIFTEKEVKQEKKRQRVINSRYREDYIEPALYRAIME
Experiment: qHTS Assay for Inhibitors of JMJD2A-Tudor Domain; further: nearly all actives have a fitted effect of over 50% in size
Conditions: AlphaScreen JMJD2A-Tudor / H3K4me3 peptide binding; activity change, negative = inhibition: at 114 µM (top of the series)
On the % scale 0 is the no-effect control and ±100 the full control effect; potency means the concentration at half of the fitted maximal effect; tags describe the fitted curve by direction and shape.

Activity change, negative = inhibition, inactive:
COc1ccc(CNC(=O)C(c2ccco2)N(C(=O)c2snc(C(N)=O)c2N)c2cccc(OC)c2)cc1 (stereo unspecified) -0.69%
COCc1cc(C)nc(OCC(=O)N/N=C/c2ccc(OC)c(OC)c2)c1C#N -5.7%
O=C(NC1CCCC1)C(c1ccc(F)cc1)N(Cc1ccc(F)cc1)C(=O)CCl (stereo unspecified) -23.2%
CC(C)OC(=O)c1cn(-c2ccccc2)nc1-c1ccco1 -15.8%
O=C(Cn1nc(-c2cccc([N+](=O)[O-])c2)c2ccccc2c1=O)NCC1CCCO1 (stereo unspecified) -5.59%
O=C(Nc1ccc2nc(SCc3ccccc3)sc2c1)c1ccccc1F -2.98%
CCC(=O)N1CCc2cc(S(=O)(=O)NC(C(=O)NC(C)c3ccccc3)C(C)C)ccc21 (stereo unspecified) -20.6%
CN1CCc2nc(SCCOc3ccccc3)c(C#N)cc2C1 -8.84%

Potency, inconclusive:
COc1ccc(O)c(CN2CCN(CCc3ccccc3)C(CCO)C2)c1 (stereo unspecified) 89.1 µM [inhibitor, partial curve]
O=C(Nc1ccc(S(=O)(=O)N2CCOCC2)cc1)c1ccc(Cl)c([N+](=O)[O-])c1 14.1 µM [inhibitor, full curve]
CC1(C)Cc2c(c(N3CCOCC3)nc3sc4c(NCCN5CCOCC5)nnnc4c23)CS1 56.2 µM [inhibitor, partial curve]
O=C(/C=C/c1ccco1)Nc1cccc(-c2nc3ccccc3[nH]2)c1 44.7 µM [inhibitor, partial curve]
COc1cc([C@H]2[C@@H]3CCCC[C@]3(O)CCN2CC(=O)Nc2ccc(C)cc2C)ccc1O 35.5 µM [inhibitor, single point]
COc1ccc2cc(C(=O)C3CCCN(Cc4ccccn4)C3)ccc2c1 (stereo unspecified) 63.1 µM [inhibitor, partial curve, poor fit]
CC(=O)OC1[C@H](Oc2c(O)c(C)c3c4c2[C@@H](C)CC[C@@H]4[C@@H](C)C[C@@H]3C=C(C)C)OC[C@@H](O)[C@@H]1O (stereo partly specified) 50.1 µM [inhibitor, partial curve]

Potency, active:
COc1ccc(C/C(C)=N/NC(=O)c2cccnc2)cc1 31.6 µM
Cc1[nH]n(-c2ccccc2)c(=S)c1C=Nc1cccc([N+](=O)[O-])c1 2.51 µM
COc1cccc(-n2cc(-c3ccc(F)cc3)[nH]c2=S)c1 44.7 µM
COc1ccc(C(=O)COC(=O)CN2C(=O)C3C4CCC(C4)C3C2=O)cc1 (stereo unspecified) 50.1 µM
Cc1c(C)n(CC(O)CNCCO)c2ccccc12 (stereo unspecified) 12.6 µM
C=C(C)CCOC(=O)C(CC(=O)O)NCc1ccco1 (stereo unspecified) 35.5 µM
